From the supplement of paper PMC7125110
± gives the standard error. Variants at the background level are over-represented here.

B1: glmS ribozyme (parent)
chain: AUAAAAGCGCCAGAACUACAGAAAUGUAGUUGACGAGGAGGAGGUUUAUCGAAUUUUCGGCGGAUGCCUCCAAA

Experiments:
Conditions in all cases: with glucosamine-6-phosphate
glucosamine-6-phosphate [1] = variants of: B1; test: self-cleavage kobs at 40 uM GlcN6P; higher = faster cleavage; RNA array
In short: (§1)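 Weighted Michaelis–Menten fits across concentrations supplied kcat and KM, based on kobs from one- or two-exponential decay fits to normalised per-tile medians. The data came from barcoded ribozyme variants transcribed in situ by E. coli RNA polymerase on sequenced MiSeq chips and tracked at 37 °C by a hybridised Cy3 probe. Glucosamine-6-phosphate (40 μM to 10 mM) in HEPES/KCl/Mg(OAc)2 buffer was flowed in.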

glucosamine-6-phosphate [2] = variants of: B1; test: self-cleavage kobs at 10000 uM GlcN6P; higher = faster cleavage; RNA array
In short: as §1

glucosamine-6-phosphate [3] = variants of: B1; test: self-cleavage kobs at 640 uM GlcN6P; higher = faster cleavage; RNA array
In short: as §1

glucosamine-6-phosphate [4] = variants of: B1; test: self-cleavage kobs at 160 uM GlcN6P; higher = faster cleavage; RNA array
In short: as §1

glucosamine-6-phosphate [5] = variants of: B1; test: self-cleavage kobs at 2500 uM GlcN6P; higher = faster cleavage; RNA array
In short: as §1

Variant	self-cleavage kobs at 40 uM GlcN6P (glucosamine-6-phosphate [1]) [s⁻¹]	self-cleavage kobs at 10000 uM GlcN6P (glucosamine-6-phosphate [2]) [s⁻¹]	self-cleavage kobs at 640 uM GlcN6P (glucosamine-6-phosphate [3]) [s⁻¹]	self-cleavage kobs at 160 uM GlcN6P (glucosamine-6-phosphate [4]) [s⁻¹]	self-cleavage kobs at 2500 uM GlcN6P (glucosamine-6-phosphate [5]) [s⁻¹]
G9U G35U C68U C70A	< 1e-05	< 1e-05	–	–	–
G9U G41A U45G C71U	< 1e-05	< 1e-05	–	–	–
G9U G43C	< 1e-05	< 1e-05	< 1e-05	< 1e-05	< 1e-05
G9U G51U	< 1e-05	–	< 1e-05	< 1e-05	–
G9U G60C	< 1e-05	–	< 1e-05	< 1e-05	–
G9U U54A	< 1e-05	< 1e-05	–	< 1e-05	< 1e-05
G9U U56G	< 1e-05	–	< 1e-05	< 1e-05	< 1e-05
G9U U57A	< 1e-05	< 1e-05	–	< 1e-05	< 1e-05
C10A A12G	< 1e-05	< 1e-05	–	–	–
C10A A12G G63U	< 1e-05	–	–	–	–
C10A A12U G32C	< 1e-05	–	–	–	–
C10A A14C G44U	< 1e-05	–	–	–	–
C10A A15C	< 1e-05	–	< 1e-05	< 1e-05	< 1e-05
C10A A36G	< 1e-05	< 1e-05	< 1e-05	< 1e-05	< 1e-05
C10A A42G	< 1e-05	–	< 1e-05	< 1e-05	–
C10A C11G A33C	< 1e-05	< 1e-05	–	–	–
C10A C11U G40A	< 1e-05	< 1e-05	–	–	–
C10A C67G C68A	< 1e-05	–	–	–	–
C10A G13U U30C G43C A52U	< 1e-05	< 1e-05	–	–	–
C10A G35U U47C	< 1e-05	–	–	–	–
C10A G41A	< 1e-05	< 1e-05	< 1e-05	< 1e-05	< 1e-05
C10A G62A	< 1e-05	–	–	–	–
C10A G63U	< 1e-05	–	< 1e-05	–	–
C10A U30C	< 1e-05	< 1e-05	< 1e-05	< 1e-05	< 1e-05
C10A U30C U45A	< 1e-05	< 1e-05	< 1e-05	< 1e-05	< 1e-05

Variant	self-cleavage kobs at 40 uM GlcN6P (glucosamine-6-phosphate [1]) [s⁻¹]	self-cleavage kobs at 10000 uM GlcN6P (glucosamine-6-phosphate [2]) [s⁻¹]	self-cleavage kobs at 640 uM GlcN6P (glucosamine-6-phosphate [3]) [s⁻¹]	self-cleavage kobs at 160 uM GlcN6P (glucosamine-6-phosphate [4]) [s⁻¹]	self-cleavage kobs at 2500 uM GlcN6P (glucosamine-6-phosphate [5]) [s⁻¹]
C10A U49G	< 1e-05	–	< 1e-05	< 1e-05	< 1e-05
C10G A12G	< 1e-05	–	< 1e-05	< 1e-05	–
C10G A14G	< 1e-05	–	–	< 1e-05	–
C10G A14G U45C	< 1e-05	–	–	–	–
C10G A33C G59C C70A	< 1e-05	–	–	–	–
C10G A33G G43C	< 1e-05	< 1e-05	–	–	–
C10G A33U	< 1e-05	< 1e-05	< 1e-05	< 1e-05	< 1e-05
C10G A33U A48G	< 1e-05	–	–	–	–
C10G A42U	< 1e-05	< 1e-05	< 1e-05	< 1e-05	< 1e-05
C10G A52G	< 1e-05	< 1e-05	–	–	< 1e-05
C10G C11G G35C G37U	< 1e-05	–	–	–	< 1e-05
C10G C11U G44A U55C C71G	< 1e-05	< 1e-05	< 1e-05	–	< 1e-05
C10G C16G	< 1e-05	< 1e-05	–	< 1e-05	< 1e-05
C10G C19A	< 1e-05	–	–	–	< 1e-05
C10G C61A	< 1e-05	–	–	–	–
C10G G37U G40U	< 1e-05	–	< 1e-05	–	–
C10G G41U C61G	< 1e-05	–	< 1e-05	–	< 1e-05
C10G G43U	< 1e-05	–	< 1e-05	< 1e-05	< 1e-05
C10G G51C C58A	< 1e-05	< 1e-05	< 1e-05	–	–
C10G U31A	< 1e-05	–	–	< 1e-05	< 1e-05
C10G U49A	< 1e-05	–	< 1e-05	–	–
C10G U49G	< 1e-05	–	< 1e-05	< 1e-05	–
C10U A12G A33U G37U	< 1e-05	–	–	< 1e-05	< 1e-05
C10U A12U G35U	< 1e-05	< 1e-05	< 1e-05	< 1e-05	< 1e-05
C10U A14U A42U	< 1e-05	< 1e-05	–	–	–

Variant	self-cleavage kobs at 40 uM GlcN6P (glucosamine-6-phosphate [1]) [s⁻¹]	self-cleavage kobs at 10000 uM GlcN6P (glucosamine-6-phosphate [2]) [s⁻¹]	self-cleavage kobs at 640 uM GlcN6P (glucosamine-6-phosphate [3]) [s⁻¹]	self-cleavage kobs at 160 uM GlcN6P (glucosamine-6-phosphate [4]) [s⁻¹]	self-cleavage kobs at 2500 uM GlcN6P (glucosamine-6-phosphate [5]) [s⁻¹]
C10U A15C C68A	< 1e-05	< 1e-05	–	–	–
C10U A33C A36U A52U U65G C70A	< 1e-05	–	–	–	–
C10U A48U	< 1e-05	< 1e-05	< 1e-05	< 1e-05	–
C10U A52G A64U	< 1e-05	–	–	–	–
C10U A53G	< 1e-05	1.69e-05 ± 7.4e-06	–	–	–
C10U A64G C68A	< 1e-05	–	–	–	–
C10U C11U G44A U45A U65G	< 1e-05	–	–	–	–
C10U C50A U69C	< 1e-05	–	–	–	–
C10U C50U U54A	< 1e-05	< 1e-05	–	–	–
C10U C58A C68A	< 1e-05	–	–	–	–
C10U C61G	< 1e-05	< 1e-05	< 1e-05	–	–
C10U C67A	< 1e-05	–	–	–	–
C10U G13A A15U G63U	< 1e-05	–	< 1e-05	–	–
C10U G13C A39C A42U	< 1e-05	–	< 1e-05	< 1e-05	< 1e-05
C10U G32U A64C	< 1e-05	< 1e-05	–	–	–
C10U G38A	< 1e-05	–	< 1e-05	–	–
C10U G41C U45G	< 1e-05	–	–	–	–
C10U G60U C67U	< 1e-05	< 1e-05	< 1e-05	< 1e-05	–
C10U G63U	< 1e-05	< 1e-05	< 1e-05	–	–
C10U U45A	< 1e-05	–	–	–	–
C10U U57A G62C	< 1e-05	–	–	–	–
C10U U65A	< 1e-05	< 1e-05	< 1e-05	< 1e-05	< 1e-05
C11A A14C A36G	< 1e-05	< 1e-05	< 1e-05	< 1e-05	< 1e-05
C11A A14U G66U C67A	< 1e-05	–	–	–	–
C11A A33G	< 1e-05	–	–	–	–

Variant	self-cleavage kobs at 40 uM GlcN6P (glucosamine-6-phosphate [1]) [s⁻¹]	self-cleavage kobs at 10000 uM GlcN6P (glucosamine-6-phosphate [2]) [s⁻¹]	self-cleavage kobs at 640 uM GlcN6P (glucosamine-6-phosphate [3]) [s⁻¹]	self-cleavage kobs at 160 uM GlcN6P (glucosamine-6-phosphate [4]) [s⁻¹]	self-cleavage kobs at 2500 uM GlcN6P (glucosamine-6-phosphate [5]) [s⁻¹]
C11A A36G	< 1e-05	< 1e-05	< 1e-05	< 1e-05	–
C11A A42U	< 1e-05	< 1e-05	–	< 1e-05	< 1e-05
C11A G32A A39U	< 1e-05	–	< 1e-05	–	–
C11A G35A	< 1e-05	–	< 1e-05	< 1e-05	–
C11A G35U	< 1e-05	< 1e-05	< 1e-05	–	< 1e-05
C11A G38A	< 1e-05	< 1e-05	< 1e-05	< 1e-05	< 1e-05
C11A G51U	< 1e-05	< 1e-05	< 1e-05	–	–
C11A G62C	< 1e-05	–	< 1e-05	< 1e-05	< 1e-05
C11A U31C G51U	< 1e-05	–	–	–	–
C11A U47G	< 1e-05	–	–	–	–
C11A U49C C50U	< 1e-05	–	–	–	–
C11A U55A U56C	< 1e-05	–	–	–	–
C11G	< 1e-05	–	–	–	–
C11G A12C A64U	< 1e-05	< 1e-05	–	–	< 1e-05
C11G A14G	< 1e-05	–	–	–	–
C11G A15U	< 1e-05	–	–	< 1e-05	< 1e-05
C11G A15U G26U	< 1e-05	< 1e-05	–	–	–
C11G A52C	< 1e-05	< 1e-05	< 1e-05	< 1e-05	< 1e-05
C11G A52U	< 1e-05	< 1e-05	< 1e-05	< 1e-05	< 1e-05
C11G G35A U55G	< 1e-05	< 1e-05	–	–	–
C11G G35C C67A	< 1e-05	< 1e-05	–	–	< 1e-05
C11G G37A	< 1e-05	< 1e-05	–	< 1e-05	< 1e-05
